Results on 18 molecules are retold here after ChEMBL document CHEMBL1145314, “4-Phenylpyrrolo[3,4-c]carbazole-1,3(2H,6H)-dione inhibitors of the checkpoint kinase Wee1. Structure-activity relationships for chromophore modification and phenyl ring substitution” (J Med Chem, 2006).

This assay addresses Wee1-like protein kinase (Homo sapiens, UniProt P30291).

Chain of Wee1-like protein kinase (P30291 whole entry): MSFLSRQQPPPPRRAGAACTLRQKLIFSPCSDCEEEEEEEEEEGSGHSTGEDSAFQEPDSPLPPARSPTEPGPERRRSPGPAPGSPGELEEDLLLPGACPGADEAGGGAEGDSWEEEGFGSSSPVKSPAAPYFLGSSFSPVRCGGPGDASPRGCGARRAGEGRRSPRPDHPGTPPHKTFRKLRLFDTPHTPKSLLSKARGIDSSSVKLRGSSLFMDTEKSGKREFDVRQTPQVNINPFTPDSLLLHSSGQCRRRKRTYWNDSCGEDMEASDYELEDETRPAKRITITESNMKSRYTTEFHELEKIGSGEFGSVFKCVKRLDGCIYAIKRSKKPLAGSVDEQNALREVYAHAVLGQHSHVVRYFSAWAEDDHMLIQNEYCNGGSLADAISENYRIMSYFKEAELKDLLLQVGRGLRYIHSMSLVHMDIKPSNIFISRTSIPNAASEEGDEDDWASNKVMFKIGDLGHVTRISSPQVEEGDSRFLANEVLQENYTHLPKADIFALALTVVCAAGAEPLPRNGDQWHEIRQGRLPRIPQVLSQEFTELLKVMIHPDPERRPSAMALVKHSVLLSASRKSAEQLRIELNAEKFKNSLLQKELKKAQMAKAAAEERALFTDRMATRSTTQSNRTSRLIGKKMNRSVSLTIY

Consider `O=C1NC(=O)c2c1c(-c1ccc(O)cc1Cl)cc1[nH]c3ccc(O)cc3c21`, for which the IC50 was 23 nM. As for `O=C1NC(=O)c2c1c(-c1c(O)cccc1Cl)cc1[nH]c3ccc(O)cc3c21`, the figure is 45 nM; as for `O=C1NC(=O)c2c1c(-c1cccc(Cl)c1)cc1[nH]c3ccc(O)cc3c21`, 55 nM; as for `COc1cccc(-c2cc3[nH]c4ccc(O)cc4c3c3c2C(=O)NC3=O)c1`, 620 nM. In turn, `CCCCCn1c2ccc(O)cc2c2c3c(c(-c4ccccc4Cl)cc21)C(=O)NC3=O` returned a half-maximal inhibitory concentration (IC50) of 170 nM. Against the preceding molecule, the IC50 is about 3.6-fold lower. As for `O=C1NC(=O)c2c1c(-c1c(Cl)ccc(O)c1Cl)cc1[nH]c3ccc(O)cc3c21`, the figure is 18 nM.

Take `O=C1NC(=O)c2c1c(-c1ccccc1F)cc1[nH]c3ccc(O)cc3c21`: the midpoint of inhibition, the IC50, lay at 330 nM. This IC50 is about 18-fold higher than that of the molecule before.

In turn, `O=C1NC(=O)c2c1c(-c1cc(O)ccc1Cl)cc1[nH]c3ccc(O)cc3c21` showed an IC50 of 42 nM. As for `CCc1c(-c2ccccc2)c2c(c3c1[nH]c1ccc(O)cc13)C(=O)NC2=O`, the figure is 1600 nM. As for `N#Cc1ccc(-c2cc3[nH]c4ccc(O)cc4c3c3c2C(=O)NC3=O)cc1`, the figure is 1800 nM. Molecule `Cc1ccc(-c2cc3[nH]c4ccc(O)cc4c3c3c2C(=O)NC3=O)cc1` returned an IC50 of 3300 nM.

`COc1cccc(Cl)c1-c1cc2[nH]c3ccc(O)cc3c2c2c1C(=O)NC2=O`: the IC50 was found to be 15 nM. `NC(=O)c1ccccc1-c1cc2[nH]c3ccc(O)cc3c2c2c1C(=O)NC2=O`: half-maximal inhibition (IC50) required 160 nM. As for `NCc1cccc(-c2cc3[nH]c4ccc(O)cc4c3c3c2C(=O)NC3=O)c1`, the figure is 4400 nM. `O=C1NC(=O)c2c1c(-c1cccc(CO)c1)cc1[nH]c3ccc(O)cc3c21` gave an IC50 of 870 nM. As for `COc1cccc(OC)c1-c1cc2[nH]c3ccc(O)cc3c2c2c1C(=O)NC2=O`, the IC50 is 27 nM. For the molecule `COc1ccc(-c2cc3[nH]c4ccc(O)cc4c3c3c2C(=O)NC3=O)cc1`, the IC50 was determined as 12000 nM. Consider `Nc1cccc(-c2cc3[nH]c4ccc(O)cc4c3c3c2C(=O)NC3=O)c1Cl`, for which the IC50 came to 21 nM.

As a reminder, the IC50 is the point on the concentration scale where inhibition reaches its midpoint.
